# Assay results from the supplement of paper PMC12217912.
# This is one part of the list. Sequences were assembled here from the parent chain. Values near 0.05 are background.
# B1: TEV protease; numbered along this chain (parent)
# chain: MGESLFKGPRDYNPISSSICHLTNESDGHTTSLYGIGFGPFIITNKHLFRRNNGTLVVQSLHGVFKVKDTTTLQQHLVDGRDMIIIRMPKDFPPFPQKLKFREPQREERICLVTTNFQTKSMSSMVSDTSCTFPSGDGIFWKHWIQTKDGQCGSPLVSTRDGFIVGIHSASNFTNTNNYFTSVPKNFMELLTNQEAQQWVSGWRLNADSVLWGGHKVFMVKPEEPFQPVKEATQL
# Variants of: B1
# Assay: raw area under fraction-flipped curve 0-4 h after induction (AUC4h, not background-subtracted), DNA-recorder readout of cleavage of the substrate (dimensionless); higher = more cleavage of the substrate by the protease variant
# Settings: temperature: 34 °C; time window: 0-4 h after rhamnose induction
# Protocol: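 In vivo DNA recorder in E. coli TOP10(DE3) ΔrhaA at 34 °C. Each TEVp single-site mutant (parent TEVp 0) is paired with a single-site variant of the 7-mer TEVs (canonical ENLYFQ|S). The substrate sits between flexible linkers in a Bxb1-sfGFP-TEVs-SsrA fusion, so cleavage stabilises Bxb1 and speeds flipping of a recombination array, read by NGS. The value is the raw area under the fraction-flipped curve over 0-4 h after rhamnose induction (AUC4h), with ≥20 reads per time point. It is not background-subtracted; inactive controls average about 0.047.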
# 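Also: Bxb1 expression induced with 0.2% (w/v) L-rhamnose at OD600 near 0.5, cultures sampled hourly, flipped fraction per protease–substrate barcode pair counted by paired-end Illumina sequencing.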
Variant,area with substrate ENLYAQS,area with substrate ENLYCQS,area with substrate ENLYDQS,area with substrate ENLYEQS,area with substrate ENLYGQS,area with substrate ENLYHQS,area with substrate ENLYIQS,area with substrate ENLYKQS,area with substrate ENLYNQS,area with substrate ENLYPQS,area with substrate ENLYQQS,area with substrate ENLYSQS,area with substrate ENLYVQS,area with substrate ENLYWQS,area with substrate ENLYMQS,area with substrate ENLYRQS,area with substrate ENLYTQS,area with substrate ENLYYQS,area with substrate ENLYLQS
MGESLFKGPRDYNPISSSICHLTNESDGHTTSLYGIGFGPFIITNKHLFRRNNGTLVVQSLHGVKKVKDTTTLQQHLVDGRDMIIIRMPKDFPPFPQKLKFREPQREERICLVTTNFQTKSMSSMVSDTSCTFPSGDGIFWKHWIQTKDGQCGSPLVSTRDGFIVGIHSASNFTNTNNYFTSVPKNFMELLTNQEAQQWVSGWRLNADSVLWGGHKVFMVKPEEPFQPVKEATQL [F65K],0.0497,0.103,0.0748,0.0622,0.0532,0.0609,0.0821,0.0799,0.0767,0.0891,0.0635,0.0681,0.0716,0.0721,,,,,
MGESLFKGPRDYNPISSSICHLTNESDGHTTSLYGIGFGPFIITNKHLFRRNNGTLVVQSLHGVCKVKDTTTLQQHLVDGRDMIIIRMPKDFPPFPQKLKFREPQREERICLVTTNFQTKSMSSMVSDTSCTFPSGDGIFWKHWIQTKDGQCGSPLVSTRDGFIVGIHSASNFTNTNNYFTSVPKNFMELLTNQEAQQWVSGWRLNADSVLWGGHKVFMVKPEEPFQPVKEATQL [F65C],0.0663,,,0.0664,0.0616,0.0621,0.112,0.0603,0.0352,,,0.0705,0.102,,0.0781,0.0671,0.0524,0.0576,
MGESLFKGPRDYNPISSSICHLTNESDGHTTSLYGIGFGPFIITNKHLFRRNNGTLVVQSLHGVFKVKVTTTLQQHLVDGRDMIIIRMPKDFPPFPQKLKFREPQREERICLVTTNFQTKSMSSMVSDTSCTFPSGDGIFWKHWIQTKDGQCGSPLVSTRDGFIVGIHSASNFTNTNNYFTSVPKNFMELLTNQEAQQWVSGWRLNADSVLWGGHKVFMVKPEEPFQPVKEATQL [D69V],0.0668,0.058,,0.0578,0.065,0.0606,0.0923,0.059,0.0586,0.037,0.055,,,,0.0684,0.063,0.0662,0.052,
MGESLFKGPRDYNPISSSICHLTNESDGHTTSLYGIGFGPFIITNKHLFRRNNGTLVVQSLHPVFKVKDTTTLQQHLVDGRDMIIIRMPKDFPPFPQKLKFREPQREERICLVTTNFQTKSMSSMVSDTSCTFPSGDGIFWKHWIQTKDGQCGSPLVSTRDGFIVGIHSASNFTNTNNYFTSVPKNFMELLTNQEAQQWVSGWRLNADSVLWGGHKVFMVKPEEPFQPVKEATQL [G63P],0.0478,,0.04,0.0554,0.0592,0.0621,0.0738,0.0404,0.0705,0.0299,0.0602,0.0592,,0.0687,0.0647,,0.057,,
MGESLFKGPRDYNPISSSICHLTNESDGHTTSLYGIGFGPFIITNKHLFRRNNGTLVVQSLHEVFKVKDTTTLQQHLVDGRDMIIIRMPKDFPPFPQKLKFREPQREERICLVTTNFQTKSMSSMVSDTSCTFPSGDGIFWKHWIQTKDGQCGSPLVSTRDGFIVGIHSASNFTNTNNYFTSVPKNFMELLTNQEAQQWVSGWRLNADSVLWGGHKVFMVKPEEPFQPVKEATQL [G63E],0.0634,,,,,0.069,,,0.0546,0.066,0.0609,,0.102,,0.0462,0.0538,,0.0312,
MGESLFKGPRDYNPISSSICHLTNESDGHTTSLYGIGFGPFIITNKHLFRRNNGTLVVQSLHGVFKVKDTTTLQQHLVDGRDMKIIRMPKDFPPFPQKLKFREPQREERICLVTTNFQTKSMSSMVSDTSCTFPSGDGIFWKHWIQTKDGQCGSPLVSTRDGFIVGIHSASNFTNTNNYFTSVPKNFMELLTNQEAQQWVSGWRLNADSVLWGGHKVFMVKPEEPFQPVKEATQL [I84K],0.0625,,0.0552,0.0571,0.061,0.0632,0.0481,0.057,0.0581,0.0498,0.0547,,0.0535,,0.0473,,,0.0584,
MGESLFKGPRDYNPISSSICHLTNESDGHTTSLYGIGFGPFIITNKHLFRRNNGTLVVQSLHGVFKVKDTTTLQQHLVDGRDMIQIRMPKDFPPFPQKLKFREPQREERICLVTTNFQTKSMSSMVSDTSCTFPSGDGIFWKHWIQTKDGQCGSPLVSTRDGFIVGIHSASNFTNTNNYFTSVPKNFMELLTNQEAQQWVSGWRLNADSVLWGGHKVFMVKPEEPFQPVKEATQL [I85Q],0.053,,,,0.0545,0.0529,0.0499,,0.0487,0.0532,0.0496,,0.075,0.0507,0.0552,,,0.0388,
MGESLFKGPRDYNPISSSICHLTNESDGHTTSLYGIGFGPFIITNKHLFRRNNGTLVVQSLHGVFKVKDTTTLQQHLVDGRDMINIRMPKDFPPFPQKLKFREPQREERICLVTTNFQTKSMSSMVSDTSCTFPSGDGIFWKHWIQTKDGQCGSPLVSTRDGFIVGIHSASNFTNTNNYFTSVPKNFMELLTNQEAQQWVSGWRLNADSVLWGGHKVFMVKPEEPFQPVKEATQL [I85N],0.0307,,0.0524,0.0486,0.0403,0.0493,,,,0.0558,,0.0484,0.0401,0.0462,0.0453,0.0444,0.0485,,0.0235
MGESLFKGPRDYNPISSSICHLTNESDGHTTSLYGIGFGPFIITNKHLFRRNNGTLVVQSLHGVFKVSDTTTLQQHLVDGRDMIIIRMPKDFPPFPQKLKFREPQREERICLVTTNFQTKSMSSMVSDTSCTFPSGDGIFWKHWIQTKDGQCGSPLVSTRDGFIVGIHSASNFTNTNNYFTSVPKNFMELLTNQEAQQWVSGWRLNADSVLWGGHKVFMVKPEEPFQPVKEATQL [K68S],0.0812,,0.174,,,0.0657,,,,0.0837,,,0.105,0.0803,0.0722,,0.0809,,0.0722
MGESLFKGPRDYNPISSSICHLTNESDGHTTSLYGIGFGPFIITNKHLFRRNNGTLVVQSLHGVFKVKDTTWLQQHLVDGRDMIIIRMPKDFPPFPQKLKFREPQREERICLVTTNFQTKSMSSMVSDTSCTFPSGDGIFWKHWIQTKDGQCGSPLVSTRDGFIVGIHSASNFTNTNNYFTSVPKNFMELLTNQEAQQWVSGWRLNADSVLWGGHKVFMVKPEEPFQPVKEATQL [T72W],0.0782,0.0631,0.0394,0.0538,0.0537,0.0664,,,0.0571,0.0577,,,,0.0756,,0.0623,0.0677,0.0585,0.0743
MGESLFKGPRDYNPISSSICHLTNESDGHTTSLYGIGFGPFIITNKHLFRRNNGTLVVQSLHGVFKVKDTTTLQQHLVDGRTMIIIRMPKDFPPFPQKLKFREPQREERICLVTTNFQTKSMSSMVSDTSCTFPSGDGIFWKHWIQTKDGQCGSPLVSTRDGFIVGIHSASNFTNTNNYFTSVPKNFMELLTNQEAQQWVSGWRLNADSVLWGGHKVFMVKPEEPFQPVKEATQL [D82T],0.0551,0.0414,0.0614,0.0602,0.0578,0.0463,0.0446,0.0613,0.0476,0.0559,,0.0661,0.0545,0.0884,0.0598,0.0671,,0.0573,0.0616
MGESLFKGPRDYNPISSSICHLTNESDGHTTSLYGIGFGPFIITNKHLFRRNNGTLVVQSLHGVFKVKDTTTLQQHLVDGRCMIIIRMPKDFPPFPQKLKFREPQREERICLVTTNFQTKSMSSMVSDTSCTFPSGDGIFWKHWIQTKDGQCGSPLVSTRDGFIVGIHSASNFTNTNNYFTSVPKNFMELLTNQEAQQWVSGWRLNADSVLWGGHKVFMVKPEEPFQPVKEATQL [D82C],0.0583,0.0685,,0.0579,,0.0635,0.059,0.0154,0.0573,,,,0.0443,0.0551,0.0559,0.064,,,
MGESLFKGPRDYNPISSSICHLTNESDGHTTSLYGIGFGPFIITNKHLFRRNNGTLVVQSLHGVFKVKDTTTLQQHLVDGRDHIIIRMPKDFPPFPQKLKFREPQREERICLVTTNFQTKSMSSMVSDTSCTFPSGDGIFWKHWIQTKDGQCGSPLVSTRDGFIVGIHSASNFTNTNNYFTSVPKNFMELLTNQEAQQWVSGWRLNADSVLWGGHKVFMVKPEEPFQPVKEATQL [M83H],0.0559,0.0486,0.061,0.0604,,0.0573,,0.0505,0.0544,0.0557,,0.061,0.0549,0.0568,0.0585,0.0837,0.0594,0.0568,
MGESLFKGPRDYNPISSSICHLTNESDGHTTSLYGIGFGPFIITNKHLFRRNNGTLVVQSLHGVFKVKDTTTLQQHLVDGQDMIIIRMPKDFPPFPQKLKFREPQREERICLVTTNFQTKSMSSMVSDTSCTFPSGDGIFWKHWIQTKDGQCGSPLVSTRDGFIVGIHSASNFTNTNNYFTSVPKNFMELLTNQEAQQWVSGWRLNADSVLWGGHKVFMVKPEEPFQPVKEATQL [R81Q],0.0612,0.0815,,0.0684,,0.0625,0.0952,0.0671,,,,,0.0936,0.0454,0.0612,,,0.0637,
MGESLFKGPRDYNPISSSICHLTNESDGHTTSLYGIGFGPFIITNKHLFRRNNGTLVVQSLHGVFKVKDTTTLQQHLHDGRDMIIIRMPKDFPPFPQKLKFREPQREERICLVTTNFQTKSMSSMVSDTSCTFPSGDGIFWKHWIQTKDGQCGSPLVSTRDGFIVGIHSASNFTNTNNYFTSVPKNFMELLTNQEAQQWVSGWRLNADSVLWGGHKVFMVKPEEPFQPVKEATQL [V78H],0.053,,,,0.0518,0.0527,,0.0578,,0.0607,,0.0452,,0.03,,,,,0.0637
MGESLFKGPRDYNPISSSICHLTNESDGHTTSLYGIGFGPFIITNKHLFRRNNGTLVVQSLHGVFKVKDTTTLQGHLVDGRDMIIIRMPKDFPPFPQKLKFREPQREERICLVTTNFQTKSMSSMVSDTSCTFPSGDGIFWKHWIQTKDGQCGSPLVSTRDGFIVGIHSASNFTNTNNYFTSVPKNFMELLTNQEAQQWVSGWRLNADSVLWGGHKVFMVKPEEPFQPVKEATQL [Q75G],0.0655,,0.0425,0.0616,,0.0401,0.109,0.047,0.0618,0.0588,,,0.103,0.063,,,,0.0571,
MGESLFKGPRDYNPISSSICHLTNESDGHTTSLYGIGFGPFIITNKHLFRRNNGTLVVQSLHGVFKVKDTTTLQYHLVDGRDMIIIRMPKDFPPFPQKLKFREPQREERICLVTTNFQTKSMSSMVSDTSCTFPSGDGIFWKHWIQTKDGQCGSPLVSTRDGFIVGIHSASNFTNTNNYFTSVPKNFMELLTNQEAQQWVSGWRLNADSVLWGGHKVFMVKPEEPFQPVKEATQL [Q75Y],0.0642,,0.0617,,0.0642,0.0599,0.0656,0.0666,0.0629,0.051,0.0626,0.0575,0.0803,,0.057,,0.0638,0.0588,0.0451
MGESLFKGPRDYNPISSSICHLTNESDGHTTSLYGIGFGPFIITNKHLFRRNNGTLVVQSLHGVFKVKDTTTLQQHLVRGRDMIIIRMPKDFPPFPQKLKFREPQREERICLVTTNFQTKSMSSMVSDTSCTFPSGDGIFWKHWIQTKDGQCGSPLVSTRDGFIVGIHSASNFTNTNNYFTSVPKNFMELLTNQEAQQWVSGWRLNADSVLWGGHKVFMVKPEEPFQPVKEATQL [D79R],0.0586,,0.0581,0.0668,0.0666,0.064,0.0951,0.0651,0.0641,0.0609,0.0576,0.0697,0.09,,,0.0803,0.071,,
